The list shows a part of the results.
Each sequence was assayed against T1, OsWOX13 (Oryza sativa, UniProt Q5QMM3 1-267) (assay: protein-binding microarray (RPBM); PBS, 2% BSA, 51.3 ng/ul salmon testes DNA, 50 uM zinc acetate, 200 nM TF, 25 C, 1 h; high values mean tight binding). Conditions: protein: recombinant; tags: N-terminal polyhistidine and DsRed monomer fusion (pET32a); label: CyDye5-dUTP incorporated in the synthesized complementary strand; 3' TTTTT single-stranded linker to array surface; dsDNA, one strand shown.
T1 sequence: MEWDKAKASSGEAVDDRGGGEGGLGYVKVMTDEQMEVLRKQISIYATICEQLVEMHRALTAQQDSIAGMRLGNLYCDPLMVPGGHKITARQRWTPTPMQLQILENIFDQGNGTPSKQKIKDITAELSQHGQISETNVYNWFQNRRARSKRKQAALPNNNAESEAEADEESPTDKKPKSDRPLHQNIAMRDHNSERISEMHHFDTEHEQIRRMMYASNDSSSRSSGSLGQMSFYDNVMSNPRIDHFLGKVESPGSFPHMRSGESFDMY
Procedure, shortened: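 Transcription factors were each fused at the N-terminus to a polyhistidine tag plus DsRed and expressed in E. coli BL21-CodonPlus before Ni–NTA purification. Binding to a double-stranded custom Agilent array was carried out with 200 nM protein at 25 °C for 1 h in PBS, 2% BSA, salmon testes DNA and 50 µM zinc acetate. The binding signal is per-feature fluorescence intensity, in arbitrary units, on an Axon 4000B scanner.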
With “GGACCTGATTTGGACTCAAATCAGGTGTTGACGAATAGAGCGGAGTCACCTAGTGCAG” the binding signal was 14600 fluorescence intensity (a.u.). With “CTAAATGGAAAATGAGGAAATGATTAGTTTTCAATATTTGCGGAGTCACCTAGTGCAG” the binding signal was 22100 fluorescence intensity (a.u.). With “ACCATCTACTCTCAACCAATCACAACTATTCTCTTTACCTCGGAGTCACCTAGTGCAG” the binding signal was 3870 fluorescence intensity (a.u.). In the case of “TACTTTATTAATTGCCCCTTATTAAAAGTGATAAAACTAACGGAGTCACCTAGTGCAG”, the binding signal is reported as 10600 fluorescence intensity (a.u.). In the case of “CTCAGGCTGATTTGAAATTTACATATGTGGTTACTTGCCACGGAGTCACCTAGTGCAG”, the binding signal is reported as 18700 fluorescence intensity (a.u.). With “GATGAAACGGAATTGAAGACAATTATTTGGGAGTGAATTACGGAGTCACCTAGTGCAG” the binding signal was 3240 fluorescence intensity (a.u.). With “CTCTCTTTCTTGGCCGTCTCTCTTATATCCCTCAATTTAACGGAGTCACCTAGTGCAG” the binding signal was 3520 fluorescence intensity (a.u.). In the case of “TCTAATTAATGAACAACAGAATGTCTTCATTCAATTTGCCCGGAGTCACCTAGTGCAG”, the binding signal is reported as 32500 fluorescence intensity (a.u.). “GCTGACTAATTATGTAACAGGGGTCAAACAAGTAGGTGGACGGAGTCACCTAGTGCAG” was tested, and the binding signal was 20400 fluorescence intensity (a.u.). With “ATTTCTCAATATTGACAAATTTATTACCACAGATAGCAACCGGAGTCACCTAGTGCAG” the binding signal was 5680 fluorescence intensity (a.u.). For “ATCTAAGCTCATCTCAACCAATCACAACCATCGTTGATTTCGGAGTCACCTAGTGCAG”, the binding signal was 3410 fluorescence intensity (a.u.). For “AACTGACTATGACTGGTGGGCCCTTCGACCTACTCCCACTCGGAGTCACCTAGTGCAG”, the binding signal was 3730 fluorescence intensity (a.u.). “AACTGATTAAAATCGCATGCTGTGCTGCCTCGTTGCTGCACGGAGTCACCTAGTGCAG” was tested, and the binding signal was 19900 fluorescence intensity (a.u.). For “CTGCTAATCACCGCCAATCTTGCATTGTTCTTTCTTTCGTCGGAGTCACCTAGTGCAG”, the binding signal was 28200 fluorescence intensity (a.u.). In the case of “CCGACGGCTCAGATTGACTGCAGTAGTGGGTATCTCTTCTCGGAGTCACCTAGTGCAG”, the binding signal is reported as 13700 fluorescence intensity (a.u.). With “ATCAGAGCAGTTGATTTGATCGATCTCTTCCGCCGCCAAGCGGAGTCACCTAGTGCAG” the binding signal was 4420 fluorescence intensity (a.u.). For “CGTAAATGCTCATCTTGACTGCAGGGCACGGATTTTCAACCGGAGTCACCTAGTGCAG”, the binding signal was 3950 fluorescence intensity (a.u.). With “CATAATGATTGCGTTGAACGTTGGTTGCTTGATCATCTTTCGGAGTCACCTAGTGCAG” the binding signal was 18600 fluorescence intensity (a.u.). With “AATCATAATTAGCATGTGTAGCTCACGCTAAAATTAAAAGCGGAGTCACCTAGTGCAG” the binding signal was 7260 fluorescence intensity (a.u.). “CTTGCTAATCAGTCAATAAACCTAATCAGGAGACACCAAACGGAGTCACCTAGTGCAG” was tested, and the binding signal was 16000 fluorescence intensity (a.u.). For “TCTTAATTAGCCTTTGTGATTTAGCTTAATCACATGGCTACGGAGTCACCTAGTGCAG”, the binding signal was 34800 fluorescence intensity (a.u.). For “AACCTAATTATTCTATGATTTGGTAATATGGTGCTTAAATCGGAGTCACCTAGTGCAG”, the binding signal was 34300 fluorescence intensity (a.u.). “TTGGTTGGTTGGTTGATTGCTCGCGCCCCGCGCGGTTGCGCGGAGTCACCTAGTGCAG” was tested, and the binding signal was 6680 fluorescence intensity (a.u.). In the case of “CCCTACATTTATAATAATTAACGAATTCACCCTCCTGACCCGGAGTCACCTAGTGCAG”, the binding signal is reported as 10300 fluorescence intensity (a.u.). “CAACCTGCCAATCATGCATTGGGCCAGCCATCAGGCTACTCGGAGTCACCTAGTGCAG” was tested, and the binding signal was 11300 fluorescence intensity (a.u.). With “GACCAAAATTGACTGGCACCAAACATTTTAAAGCTATTGGCGGAGTCACCTAGTGCAG” the binding signal was 41400 fluorescence intensity (a.u.). With “ATTTCAATTACTCACAGGATGATCCACTGGGCTTTACGGGCGGAGTCACCTAGTGCAG” the binding signal was 15100 fluorescence intensity (a.u.). With “TTGAGTGATTATTGACCATATAGCTTGAGTACTTTTATGGCGGAGTCACCTAGTGCAG” the binding signal was 27100 fluorescence intensity (a.u.). With “ACAGATTAGACACCAAATTTTCTGTCGACTGAGACAGATACGGAGTCACCTAGTGCAG” the binding signal was 20700 fluorescence intensity (a.u.). With “TCATCAATTATTTATACTCACTTTATTCGAATTGGCGCATCGGAGTCACCTAGTGCAG” the binding signal was 33400 fluorescence intensity (a.u.). In the case of “TTTCATGTGATTTAAGAAACTAAATCTGTTCATGTGAAGACGGAGTCACCTAGTGCAG”, the binding signal is reported as 3830 fluorescence intensity (a.u.). “CGGCCACATAATTAATTAACCTAACACAGAAGATTGATCACGGAGTCACCTAGTGCAG” was tested, and the binding signal was 16500 fluorescence intensity (a.u.). With “CAAGATTTGGAGGTAGATTTTCTGTCAACAGATCGTTAGCCGGAGTCACCTAGTGCAG” the binding signal was 9160 fluorescence intensity (a.u.). For “TTACACTAAATTACATTCACTCTTACATTGCAATTACACCCGGAGTCACCTAGTGCAG”, the binding signal was 7900 fluorescence intensity (a.u.). In the case of “TAATAATTTAATGGAGAAGGGATCATAACTAATTGCCTACCGGAGTCACCTAGTGCAG”, the binding signal is reported as 15300 fluorescence intensity (a.u.). With “AACAATATATAGGTAATTAATTGATGGTTAAAGTTTAAATCGGAGTCACCTAGTGCAG” the binding signal was 13800 fluorescence intensity (a.u.). “TATTGATTTAATGAAACTAATTTGGTATTATAAATATTACCGGAGTCACCTAGTGCAG” was tested, and the binding signal was 32200 fluorescence intensity (a.u.). In the case of “TTTTAATCTTTGGCCAATTATGGTTGAATACAGCCAGCTCCGGAGTCACCTAGTGCAG”, the binding signal is reported as 7840 fluorescence intensity (a.u.). In the case of “GGTGCAATCATATTATAGATTGGATTAATAATTTAAGAGACGGAGTCACCTAGTGCAG”, the binding signal is reported as 40200 fluorescence intensity (a.u.). “GTGAAGATTAAGAAAATTTAAACACCTCGTGAATGCAGAGCGGAGTCACCTAGTGCAG” was tested, and the binding signal was 4080 fluorescence intensity (a.u.). In the case of “CTCTTCCAATCTAAAATAACGAATGCAGCCTTAGGAAATGCGGAGTCACCTAGTGCAG”, the binding signal is reported as 3480 fluorescence intensity (a.u.). “GCTTGACTAACATATTCTGTTGGATTGCTACCGCGCCATGCGGAGTCACCTAGTGCAG” was tested, and the binding signal was 7150 fluorescence intensity (a.u.).

Reference: paper PMC7819943, “Rice protein-binding microarrays: a tool to detect cis-acting elements near promoter regions in rice”
